Test results published in publication PMC4336329 (PLoS ONE, 2015).
Among all 310,000 compounds or so, about 2,200 (0.71%) showed an effect of 50% or more. The effect is printed as a negative number. Some of the results follow.

Target: human ether-à-go-go-related gene (hERG) potassium channel (human, UniProt Q12809)
Assay: primary screen, population patch clamp on CHO cells stably expressing hERG

human ether-à-go-go-related gene (hERG) potassium channel, sequence (Q12809 whole entry, looked up): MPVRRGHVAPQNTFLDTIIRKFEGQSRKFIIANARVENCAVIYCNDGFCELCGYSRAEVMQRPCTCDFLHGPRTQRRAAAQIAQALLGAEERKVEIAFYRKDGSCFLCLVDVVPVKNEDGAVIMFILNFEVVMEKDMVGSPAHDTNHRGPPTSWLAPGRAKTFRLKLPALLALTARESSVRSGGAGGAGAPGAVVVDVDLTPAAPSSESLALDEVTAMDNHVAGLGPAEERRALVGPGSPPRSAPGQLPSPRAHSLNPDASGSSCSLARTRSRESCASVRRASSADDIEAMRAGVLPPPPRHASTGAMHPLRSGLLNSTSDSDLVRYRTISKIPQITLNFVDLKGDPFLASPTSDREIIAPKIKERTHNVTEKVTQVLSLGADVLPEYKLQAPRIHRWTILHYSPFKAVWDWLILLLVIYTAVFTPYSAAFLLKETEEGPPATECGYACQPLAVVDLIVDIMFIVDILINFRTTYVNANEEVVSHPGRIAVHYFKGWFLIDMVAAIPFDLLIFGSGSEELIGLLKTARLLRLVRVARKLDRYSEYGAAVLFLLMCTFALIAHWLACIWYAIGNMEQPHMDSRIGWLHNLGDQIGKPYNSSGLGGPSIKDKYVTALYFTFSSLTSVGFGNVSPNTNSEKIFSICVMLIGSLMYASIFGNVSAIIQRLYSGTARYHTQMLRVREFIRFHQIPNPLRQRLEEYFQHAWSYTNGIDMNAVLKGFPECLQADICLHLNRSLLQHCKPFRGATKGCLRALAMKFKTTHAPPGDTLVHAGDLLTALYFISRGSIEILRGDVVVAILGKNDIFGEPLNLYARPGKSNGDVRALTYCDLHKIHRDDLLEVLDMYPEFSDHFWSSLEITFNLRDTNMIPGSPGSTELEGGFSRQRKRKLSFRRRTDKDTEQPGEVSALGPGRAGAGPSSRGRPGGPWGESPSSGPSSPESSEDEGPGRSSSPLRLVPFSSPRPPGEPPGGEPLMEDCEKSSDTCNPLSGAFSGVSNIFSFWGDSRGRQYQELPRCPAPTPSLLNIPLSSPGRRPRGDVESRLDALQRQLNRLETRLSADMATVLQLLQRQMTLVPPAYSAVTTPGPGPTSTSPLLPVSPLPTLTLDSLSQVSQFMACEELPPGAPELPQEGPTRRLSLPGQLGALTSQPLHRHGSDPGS

Row | SMILES | hERG current change (%, negative = inhibition) at 1uM
1 | CCc1cc(C(=O)Nc2ccc(S(=O)(=O)NC3=NCCCCC3)cc2)sc1C | -3.62%
2 | Nc1nc(SCc2ccc([N+](=O)[O-])cc2)c2ncn(C3OC(CO)C(O)C3O)c2n1 (stereo not shown) | 7.76%
3 | Cc1c(Cl)cnc(NC(=O)COC(=O)c2ccncc2)c1Cl | 12.5%
4 | O=C(Cn1cnc2ccccc21)N/N=C/c1ccc([N+](=O)[O-])cc1 | 10.9%
5 | O=C(CCN1CCC(c2cccs2)=N1)c1cccs1 | 8.07%
6 | CCOC(=O)C1=C(C)NC(=S)N(C(C)=O)C1c1ccc(Cl)cc1 (stereo not shown) | 9.38%
7 | COc1ccc(S(=O)(=O)N2CCC(O)(c3cccnc3)CC2)cc1OC | 7.1%
8 | O=C(Nc1cccc(O)c1)c1ccccc1[N+](=O)[O-] | 5.34%
9 | COc1ccccc1C(=O)NC(=S)Nc1ccc(N2CCOCC2)c(Cl)c1 | 11.3%
10 | O=C(Nc1ccc(F)c(Cl)c1)c1ccc2c(c1)OCO2 | 13.1%
11 | O=C(Nc1ccccc1C(F)(F)F)C1CCN(C(=O)c2cccs2)CC1 | 12.5%
12 | Cc1cccc(N(CC(N)=O)C2SC(=O)N(c3ccccc3)C2=O)c1 (stereo not shown) | 14.6%
13 | CCNC(=O)C(=O)N/N=C/c1cc([N+](=O)[O-])ccc1O | 2.06%
14 | COc1cccc(CC2(CO)CCCN(Cc3sc(N4CCCC4)nc3Cl)C2)c1 (stereo not shown) | 1.49%
15 | Cc1ccc2sc(C)[n+](CCC(C)S(=O)(=O)[O-])c2c1 (stereo not shown) | 4.78%
16 | COc1ccc(NC(=O)Nc2nnc(-c3cccs3)s2)cc1 | 5.07%
17 | O=C(Nc1ccc(COc2ccccc2)cc1)Oc1ccccc1N1CCOCC1 | 15.5%
18 | CCN1C(c2ccccc2)C(C)C(=O)C(C)C1c1ccccc1 (stereo not shown) | 6.74%
19 | CCC(C(=O)Nc1ccc2c(c1)OCCO2)n1nnc2ccccc2c1=O (stereo not shown) | 12.9%
20 | Cn1c(CNC(=O)CNC(=O)c2ccccc2)cc(=O)n(C)c1=O | 8.3%
21 | CN1C(=O)C(=Cc2ccc(-c3cccc(Cl)c3)o2)C(=O)N(C)C1=O | 4.47%
22 | COc1ccc(C(=O)OC(C)C(=O)NC2CCCc3ccccc32)cc1OC (stereo not shown) | 9.5%
23 | Cc1cccc(NC(=O)NCc2cccnc2)c1C | -15.7%
24 | CC(C)C(C(=O)NC1CCCCC1)N(CC1CCCO1)C(=O)CNS(=O)(=O)c1ccc(F)cc1 (stereo not shown) | 0.505%
25 | Cc1ccccc1N1C(=O)CN(Cc2sccc2C)C1=S | 7.66%
